# According to PubChem BioAssay AID493208 (National Center for Advancing Translational Sciences (NCATS), 2011):
# Screen size: about 44,000 compounds; about 340 (0.77%) were called active. Inconclusive results (about 5%) are left out. Calls follow the shape of the dose curve; as a rule, active = well fitted inhibition curve with a large enough effect; inconclusive = small, poorly fitted or top-dose-only effect; inactive = flat fitted curve, though single readings scatter. This is one part of the list.
# Experiment: Acumen qHTS Assay for Inhibitors of the mTORC1 Signaling Pathway in MEF (Tsc2-/-, p53-/-) Cells: Sytravon; also: nearly all actives have a fitted effect of over 50% in size;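 as to activity change, negative = inhibition: plate controls were DMSO for no effect and rapamycin for full effect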
# Conditions: phospho-rpS6 immunofluorescence/PI, 24 h; series mostly up to 38.3 µM; activity change, negative = inhibition: at the top concentration
# In short: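 Tsc2-/-, p53-/- mouse embryonic fibroblasts (empty-vector line) exposed to compound 24 hrs at 37 C, fixed, immunostained for phospho-rpS6 and counterstained with propidium iodide. Acumen laser scanning gives % positive cells from Alexa 488/PI ratio, thresholded using 7.5 nM rapamycin; PI count gives viability.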
# Potency is read from the fitted curve at half-maximal effect.
SMILES,"activity change, negative = inhibition",Potency
COc1ccc(CCNS(=O)(=O)c2ccc(N3CCCCS3(=O)=O)cc2)cc1,inactive: 14.8%,
c1ccc2c(c1)ncc1nncn12,inactive: -0.132%,
CC1CCC(NC(=O)Cn2ncc3c4ccccc4n(Cc4ccc(F)cc4)c3c2=O)CC1 (configuration not stated),inactive: 0.329%,
O=c1[nH]c2ccc(NCc3ccc(-c4ccc(F)cc4)o3)cc2[nH]1,inactive: -17.1%,
CC(=O)c1ccc(NC(=O)CSc2ccc3nnc(CCNS(=O)(=O)c4ccc(C)cc4)n3n2)cc1,inactive: 2.21%,
Cc1ccc(Nc2ncc(C(=O)Nc3ccc(F)cc3F)c3ccccc23)cc1Cl,inactive: 3.59%,
Cc1ccc(CN(C(=O)COc2ccc([N+](=O)[O-])cc2)c2ccccn2)o1,inactive: -2.85%,
CCC1CCCCN1S(=O)(=O)c1cc2c(cc1C)NC(=O)CO2 (configuration not stated),inactive: -5.31%,
COc1ccc(CNC(=O)c2nn(C)c3c2CS(=O)(=O)c2ccccc2-3)cc1,inactive: 9.82%,
CC(=O)c1cccc(NC(=O)C2CCN(S(=O)(=O)c3ccccc3)CC2)c1,inactive: -10.5%,
COc1ccc(CCNC(=O)CCS(=O)(=O)c2cc3c(cc2Cl)NC(=O)CO3)cc1OC,inactive: 10.2%,
O=C(COc1ccccc1)Nc1nnc(SCc2cc(=O)n3cc(Cl)ccc3n2)s1,inactive: 7.41%,
CCc1nnc(SCC(=O)Nc2cccc(C(F)(F)F)c2)c2cc3oc(C)cc3n12,inactive: -0.283%,
COc1ccc(-c2noc(CSc3nnc(Cc4ccccc4)n3-c3cccc(C)c3)n2)cc1,inactive: -29.8%,
COc1ccc(/C=C/C(=O)Nc2ccc3nc4c(c(Nc5ccc(OC)c(OC)c5)c3c2)CCCC4)cc1,,active: 3.69 µM
CCCc1nn2cc(-c3ccc(C)c(C)c3)nc2s1,inactive: 0.841%,
CCOC(=O)Cc1c(C)nc2c(-c3ccc(Cl)cc3)c(C(F)(F)F)nn2c1C,inactive: -3.32%,
Cc1oc(-c2ccccc2Cl)nc1CS(=O)(=O)CC(=O)NC(C)c1ccccc1 (configuration not stated),inactive: -10.9%,
CCC(C(=O)Nc1ccccc1OC)n1c(C(=O)OC)cc2sc(Cl)cc21 (configuration not stated),inactive: -7.85%,
Cc1ccc2onc(CNC(=O)NCc3ccccc3)c2c1,inactive: 6.26%,
CC(=O)N1CCc2cc(S(=O)(=O)NC(CC(C)C)C(=O)NCCc3cccc(C)c3)ccc21 (configuration not stated),inactive: -8.87%,
CCOCCCNC(=O)c1ccc2c(=O)n(CCc3ccc(OC)c(OC)c3)c(=O)[nH]c2c1,inactive: -0.407%,
CCOc1ccccc1CNC(=O)CSc1nnc(C)c2c(C)n(-c3ccccc3)nc12,inactive: -12.1%,
CCCCOc1ccccc1C(=O)N(Cc1cccc(F)c1)C1CCS(=O)(=O)C1 (configuration not stated),inactive: 4.42%,

SMILES,"activity change, negative = inhibition",Potency
Cc1ccc(NC(=O)c2ccc(CNS(=O)(=O)c3ccc4c(c3)C(C)(C)C(=O)N4C)cc2)cc1F,inactive: -22%,
CCOc1ccc(CCNC(=O)CSc2nnnn2-c2ccc(C)cc2C)cc1OCC,inactive: -1.41%,
O=C(NCC(c1cccnc1)N1CCc2ccccc21)c1ccc(F)cc1 (configuration not stated),inactive: -8.28%,
CCOc1ccc(NC(=O)N(C)CCc2c(C)nn(C)c2C)cc1,inactive: 4.28%,
CCOC(=O)C1=C(CN(C)Cc2ccccc2)NC(=O)NC1c1ccc(OC)cc1 (configuration not stated),inactive: -1.1%,
COc1cc(OC)c(NC(=O)C(Cc2ccccc2)NS(=O)(=O)c2cccc3nsnc23)cc1Cl (configuration not stated),inactive: 2.44%,
CN(C)c1ccc(NC(=O)CSc2nc3ccsc3c(=O)n2CCCCCC(=O)O)cc1,inactive: 0.25%,
Cc1c(C(=O)N(Cc2ccco2)Cc2ccccc2Cl)oc2ccc(F)cc12,inactive: -18.4%,
COc1ccc(OC(C)C(=O)NCc2nc(-c3cccc(C)c3)no2)cc1 (configuration not stated),inactive: -7.05%,
CC(C)CCNC(=O)CN1C(=O)c2cccnc2Sc2ccccc21,inactive: -18.6%,
CC(=O)c1cccc(NC(=O)Cc2noc3ccccc23)c1,inactive: 11.4%,
COc1ccc(CC(=O)Nc2cc(-c3cn4cccnc4n3)ccc2OC)cc1,inactive: -18.3%,
CCCCC(=O)NC1(C(F)(F)F)C(=O)Nc2c1c(=O)[nH]c(=O)n2-c1ccc(C)c(C)c1 (configuration not stated),inactive: 2.29%,
O=C(Nc1ccc2nc(SCCOc3ccccc3Cl)sc2c1)c1ccc2c(c1)OCO2,inactive: -10.3%,
COc1cccc(NC(=O)CSC2=Nc3ccccc3C3=NC(CC(=O)NCc4ccc5c(c4)OCO5)C(=O)N23)c1 (configuration not stated),inactive: 0.181%,
CCCCNC(=O)c1cnc2sc(N3CCCCCC3)nn2c1=O,inactive: -4.38%,
COc1ccc(C)cc1NC(=O)Nc1ccccc1OCc1cc(=O)n2ccccc2n1,inactive: -14.6%,
Cc1cc(C)c(NC(=O)C(=O)NCC(c2cccnc2)N2CCN(Cc3ccccc3)CC2)c(C)c1 (configuration not stated),inactive: -4.55%,
Cc1ccccc1-c1noc(-c2ccc(N3CCN(C)CC3)c([N+](=O)[O-])c2)n1,inactive: 2.93%,
COc1ccc2c(c1)c1c(c(=O)n(-c3ccccc3)c(=O)n1CC(=O)NCc1ccc(C)cc1)n2C,inactive: -5.05%,
CSc1nn(Cc2cccc(Cl)c2)c(N(C(C)=O)C(C)=O)c1S(=O)(=O)c1ccccc1,inactive: 2.38%,
COc1ccc(CC(=O)N(Cc2nc(-c3ccc(C)cc3)no2)C(C)C)cc1,inactive: -4.11%,
COc1ccc(C2C(=O)N(C3CCC(C)CC3)CC(=O)N2C2CCCC2)cc1OC (configuration not stated),inactive: 4.98%,
